{"source": "paper PMC7129073", "about": "(Clinical Microbiology and Infection, 2015)", "key": {"[1]": {"test_system": "U. Urealyticum (UU)", "details": "146 strains"}, "[2]": {"test_system": "M. hominis (MH)", "details": "38 strains"}}, "data": [{"molecule": "CC1COc2c(N3CCN(C)CC3)c(F)cc3c(=O)c(C(=O)O)cn1c23", "note": "(stereo not shown) [ofloxacin]", "values": [{"measurement": "number of resistant strains", "setting": "[1]", "value": 3, "unit": "strains"}, {"measurement": "number of resistant strains", "setting": "[2]", "value": 3, "unit": "strains"}]}, {"molecule": "CN(C)[C@@H]1C(O)=C(C(N)=O)C(=O)[C@@]2(O)C(O)=C3C(=O)c4c(O)cccc4[C@@](C)(O)[C@H]3C[C@@H]12", "note": "[tetracycline]", "values": [{"measurement": "number of resistant strains", "setting": "[1]", "value": "no strains resistant"}, {"measurement": "number of resistant strains", "setting": "[2]", "value": 1, "unit": "strains"}]}]}
